A lower IC50 marks a more sensitive line; a limit (>, <) means that the fit lies beyond the doses tested. AUC sums up the same curve from the lowest dose to the 256-fold higher top dose; it is 1 without any effect and falls as sensitivity rises. For some assays here: The top dose, if marked as inferred, comes from the curve model; the source does not state it. For some assays here: Drugs with an entry number were screened twice under separate entries, and the two screens often disagree.
Columns and labels:
Experiment in all cases: Viability of human cancer cell lines after 72 h of drug (GDSC screen)
PF-562271 = compound: CN(c1ncccc1CNc1nc(Nc2ccc3c(c2)CC(=O)N3)ncc1C(F)(F)F)S(C)(=O)=O [PF-562271]; settings: top dose 2.56 µM; top dose inferred
Method: (§1)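 Human cancer cell lines in 384-well plates, medium with 10% serum, drug for 72 h over a 256-fold dose range (nine 2-fold or five 4-fold steps up to the top dose). Adherent lines were fixed and stained with the nucleic acid dye Syto60, suspension lines read with resazurin; signal relative to control wells, capped at 0 and 100%. One two-parameter sigmoid per drug and line, fitted in a mixed model over all curves with the slope shared within a line.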

Afatinib = compound: CN(C)C/C=C/C(=O)Nc1cc2c(Nc3ccc(F)c(Cl)c3)ncnc2cc1O[C@H]1CCOC1 [Afatinib]
Method: as §1

SNX-2112 = compound: CC1(C)CC(=O)c2c(C(F)(F)F)nn(-c3ccc(C(N)=O)c(N[C@H]4CC[C@H](O)CC4)c3)c2C1 [SNX-2112]; settings: top dose 2.56 µM
Method: as §1

XMD13-2 = compound: O=C(NC1CC1)c1cccc(-c2ccc3c(NC(=O)C4CC4)n[nH]c3c2)c1 [XMD13-2]; settings: top dose 10.24 µM; top dose inferred
Method: as §1

Vinblastine = compound: CC[C@]1(O)C[C@@H]2CN(CCc3c([nH]c4ccccc34)[C@@](C(=O)OC)(c3cc4c(cc3OC)N(C)[C@H]3[C@@](O)(C(=O)OC)[C@H](OC(C)=O)[C@]5(CC)C=CCN6CC[C@]43[C@@H]65)C2)C1 [Vinblastine]; settings: top dose 0.1 µM; top dose inferred
Method: as §1

[1] = top dose 0.5 µM, screen: GDSC drug entry 1032
[2] = top dose 10 µM, screen: GDSC drug entry 1377, top dose inferred

Cell Line | AUC (PF-562271) | IC50 (PF-562271) [µM] | AUC (Afatinib; [1]) | IC50 (Afatinib; [1]) [µM] | AUC (Afatinib; [2]) | IC50 (Afatinib; [2]) [µM] | AUC (SNX-2112) | IC50 (SNX-2112) [µM] | AUC (XMD13-2) | IC50 (XMD13-2) [µM] | AUC (Vinblastine) | IC50 (Vinblastine) [µM]
COLO-679 (melanoma, adherent) | 0.883 | > 2.56 | 0.972 | > 0.5 | 0.949 | > 10 | 0.605 | 0.323 | 0.923 | > 10.2 | 0.635 | 0.0155
COLO-680N (oesophagus, adherent) | 0.91 | > 2.56 | 0.959 | > 0.5 | 0.96 | > 10 | 0.981 | > 2.56 | 0.934 | > 10.2 | 0.833 | 0.0817
COLO-684 (endometrium, suspension) | 0.927 | > 2.56 | 0.984 | > 0.5 | 0.983 | > 10 | 0.472 | 0.133 | 0.898 | > 10.2 | 0.546 | 0.00846
COLO-783 (melanoma, adherent) | 0.988 | > 2.56 | 0.991 | > 0.5 | 0.975 | > 10 | 0.918 | > 2.56 | 0.983 | > 10.2 | 0.672 | 0.0184
COLO-800 (melanoma, adherent) | 0.988 | > 2.56 | 0.946 | > 0.5 | 0.945 | > 10 | 0.87 | 2.27 | 0.82 | 5.65 | 0.475 | 0.00537
COLO-824 (breast, adherent) | 0.925 | > 2.56 | 0.975 | > 0.5 | 0.963 | > 10 | 0.525 | 0.187 | 0.969 | > 10.2 | 0.873 | 0.0994
COR-L23 (large cell lung carcinoma, adherent) | 0.887 | > 2.56 | 0.982 | > 0.5 | 0.979 | > 10 | 0.632 | 0.365 | 0.888 | > 10.2 | 0.446 | 0.00447
COR-L88 (small cell lung carcinoma, adherent) | 0.983 | > 2.56 | 0.985 | > 0.5 | 0.979 | > 10 | 0.717 | 0.752 | 0.855 | > 10.2 | 0.764 | 0.043
COR-L95 (small cell lung carcinoma, adherent) | 0.987 | > 2.56 | 0.985 | > 0.5 | 0.985 | > 10 | 0.619 | 0.36 | 0.941 | > 10.2 | 0.919 | > 0.1
COR-L279 (small cell lung carcinoma, suspension) | 0.963 | > 2.56 | 0.991 | > 0.5 | 0.975 | > 10 | 0.715 | 0.598 | 0.887 | 9.3 | 0.862 | 0.0711
CP50-MEL-B (melanoma, adherent) | 0.968 | > 2.56 | 0.972 | > 0.5 | 0.977 | > 10 | 0.618 | 0.338 | 0.985 | > 10.2 | 0.589 | 0.0109
CP66-MEL (melanoma, adherent) | 0.957 | > 2.56 | 0.986 | > 0.5 | 0.969 | > 10 | 0.947 | > 2.56 | 0.976 | > 10.2 | 0.826 | 0.0721
CPC-N (small cell lung carcinoma, suspension) | 0.979 | > 2.56 | 0.909 | > 0.5 | 0.93 | > 10 | 0.679 | 0.533 | 0.918 | > 10.2 | 0.362 | 0.0025
CS1 (bone, adherent) | 0.962 | > 2.56 | 0.984 | > 0.5 | 0.982 | > 10 | 0.468 | 0.13 | 0.746 | 3.57 | 0.502 | 0.00635
CTB-1 (B-cell lymphoma, suspension) | 0.954 | > 2.56 | 0.976 | > 0.5 | 0.904 | > 10 | 0.23 | 0.0191 | 0.523 | 0.755 | 0.489 | 0.00579
CTV-1 (acute myeloid leukaemia, suspension) | 0.924 | > 2.56 | 0.971 | > 0.5 | 0.982 | > 10 | 0.207 | 0.0278 | 0.73 | 2.46 | 0.257 | 0.0015
Ca9-22 (head and neck, adherent) | 0.908 | > 2.56 | 0.617 | 0.0639 | 0.256 | 0.134 | 0.512 | 0.172 | 0.846 | 6.66 | 0.468 | 0.00515
Ca-Ski (cervix, adherent) | 0.94 | > 2.56 | 0.876 | > 0.5 | 0.87 | > 10 | 0.465 | 0.127 | 0.73 | 3.17 | 0.451 | 0.0045
CaR-1 (large intestine, adherent) | 0.929 | > 2.56 | 0.807 | 0.436 | 0.707 | 3.26 | 0.546 | 0.227 | 0.958 | > 10.2 | 0.764 | 0.0555
Caov-4 (ovary, adherent) | 0.979 | > 2.56 | 0.98 | > 0.5 | 0.944 | > 10 | 0.974 | > 2.56 | 0.975 | > 10.2 | 0.937 | > 0.1
Capan-2 (pancreas, adherent) | 0.967 | > 2.56 | 0.922 | > 0.5 | 0.82 | 7.39 | 0.979 | > 2.56 | 0.972 | > 10.2 | 0.872 | > 0.1
D-247MG (glioma, adherent) | 0.894 | > 2.56 | 0.98 | > 0.5 | 0.977 | > 10 | 0.432 | 0.0977 | 0.745 | 4.28 | 0.551 | 0.00907

Cell Line | AUC (PF-562271) | IC50 (PF-562271) [µM] | AUC (Afatinib; [1]) | IC50 (Afatinib; [1]) [µM] | AUC (Afatinib; [2]) | IC50 (Afatinib; [2]) [µM] | AUC (SNX-2112) | IC50 (SNX-2112) [µM] | AUC (XMD13-2) | IC50 (XMD13-2) [µM] | AUC (Vinblastine) | IC50 (Vinblastine) [µM]
D-263MG (glioma, adherent) | 0.957 | > 2.56 | 0.976 | > 0.5 | 0.962 | > 10 | 0.809 | 1.69 | 0.97 | > 10.2 | 0.54 | 0.00823
D-283MED (medulloblastoma, adherent) | 0.964 | > 2.56 | 0.985 | > 0.5 | 0.989 | > 10 | 0.991 | > 2.56 | 0.991 | > 10.2 | 0.703 | 0.0219
D-336MG (glioma, adherent) | 0.79 | 1.52 | 0.968 | > 0.5 | 0.926 | > 10 | 0.499 | 0.158 | 0.857 | > 10.2 | 0.538 | 0.00819
D-392MG (glioma, adherent) | 0.962 | > 2.56 | 0.977 | > 0.5 | 0.959 | > 10 | 0.679 | 0.609 | 0.906 | > 10.2 | 0.631 | 0.0164
D-502MG (glioma, adherent) | 0.976 | > 2.56 | 0.942 | > 0.5 | 0.833 | > 10 | 0.91 | > 2.56 | 0.879 | > 10.2 | 0.674 | 0.0252
D-542MG (glioma, adherent) | 0.976 | > 2.56 | 0.984 | > 0.5 | 0.98 | > 10 | 0.804 | 1.64 | 0.972 | > 10.2 | 0.76 | 0.0425
DAN-G (pancreas, adherent) | 0.982 | > 2.56 | 0.976 | > 0.5 |  |  | 0.714 | 0.588 | 0.982 | > 10.2 | 0.925 | > 0.1
DB (B-cell lymphoma, suspension) | 0.962 | > 2.56 | 0.928 | > 0.5 | 0.845 | 8.62 | 0.475 | 0.136 | 0.938 | > 10.2 | 0.335 | 0.00204
DBTRG-05MG (glioma, adherent) | 0.866 | > 2.56 | 0.975 | > 0.5 | 0.976 | > 10 | 0.799 | 1.48 | 0.897 | > 10.2 | 0.545 | 0.00849
DG-75 (Burkitt lymphoma, suspension) | 0.987 | > 2.56 | 0.97 | > 0.5 | 0.925 | > 10 | 0.922 | > 2.56 | 0.934 | > 10.2 | 0.464 | 0.00499
DJM-1 (skin, adherent) | 0.964 | > 2.56 | 0.961 | > 0.5 | 0.932 | > 10 | 0.436 | 0.107 | 0.962 | > 10.2 | 0.602 | 0.0119
DK-MG (glioma, adherent) | 0.948 | > 2.56 | 0.963 | > 0.5 | 0.947 | > 10 | 0.704 | 0.809 | 0.949 | > 10.2 | 0.661 | 0.0219
DMS-53 (small cell lung carcinoma, adherent) | 0.978 | > 2.56 | 0.988 | > 0.5 | 0.974 | > 10 | 0.977 | > 2.56 | 0.987 | > 10.2 | 0.986 | > 0.1
DMS-79 (small cell lung carcinoma, suspension) | 0.987 | > 2.56 | 0.987 | > 0.5 | 0.983 | > 10 | 0.864 | > 2.56 | 0.974 | > 10.2 | 0.983 | > 0.1
DMS-273 (small cell lung carcinoma, adherent) | 0.85 | 2.11 | 0.972 | > 0.5 |  |  | 0.562 | 0.238 | 0.745 | 3.38 | 0.444 | 0.00434
DND-41 (T-cell leukaemia, suspension) | 0.918 | > 2.56 | 0.983 | > 0.5 | 0.951 | > 10 | 0.173 | 0.0193 | 0.711 | 2.31 | 0.702 | 0.0214
DOK (head and neck, adherent) | 0.9 | > 2.56 | 0.453 | 0.0219 | 0.448 | 0.421 | 0.724 | 0.972 | 0.938 | > 10.2 | 0.497 | 0.00612
DSH1 (bladder, adherent) | 0.962 | > 2.56 | 0.536 | 0.0391 | 0.562 | 0.916 | 0.262 | 0.0347 | 0.986 | > 10.2 | 0.698 | 0.0219
DU-4475 (breast, suspension) | 0.899 | 2.19 | 0.992 | > 0.5 | 0.987 | > 10 | 0.207 | 0.0273 | 0.914 | > 10.2 | 0.869 | 0.0649
Daoy (medulloblastoma, adherent) | 0.933 | > 2.56 | 0.984 | > 0.5 | 0.988 | > 10 | 0.326 | 0.0551 | 0.731 | 2.7 | 0.415 | 0.00374
Daudi (Burkitt lymphoma, suspension) | 0.968 | > 2.56 | 0.99 | > 0.5 | 0.986 | > 10 | 0.258 | 0.0364 | 0.7 | 2.15 | 0.962 | > 0.1

Source: the supplement of paper PMC4967469
